The list shows a part of the results.
Test system: T1, C. trachomatis L2/434/Bu expressing GFP (CTL2-GFP)
T1 construct: L2/434/Bu GFP intracellular growth in HeLa cells
Set-up: species or system HeLa; C. trachomatis total inclusion area by high-content imaging, normalised to DMSO
Conditions: total inclusion area; 28.5 h, 10 µM; inhibitor
In short: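 Bulk GFP and resorufin signals were read first. Wells were then fixed, stained with Hoechst and imaged to detect GFP inclusions and host nuclei. MICs followed the previously described calculation.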

Structure (SMILES) | % of control remaining
CCOc1ccc(C2CCCN2S(=O)(=O)c2c[nH]c(=O)[nH]c2=O)cc1 (stereo not drawn) [CBK285806] | 106.975
CCCn1c(NCc2cccc(OC)c2O)nc2ccccc21 [CBK133763] | 93.0877
Nc1nnc(-c2ccc(Oc3nc(N4CCOCC4)nc(N4CCOCC4)n3)cc2)s1 [CBK266305] | 138.549
COc1ccccc1-c1ncc(OC2CCN(C)C2)nc1N (stereo not drawn) [CBK145081] | 100.822
COc1ncc(-c2nccnc2OCc2cccs2)c(OC)n1 [CBK106750] | 103.239
O=C(CSc1nnnn1-c1ccc(O)cc1)NC1CCCC1 [CBK295659] | 74.072
CC(CO)(CO)Nc1ccc(C(F)(F)F)cc1[N+](=O)[O-] [CBK262806] | 44.1552
Cc1cc(CSc2cccs2)no1 [CBK002635] | 87.8022
Cc1ccc(NC(=O)CCC(=O)O)c(C(=O)c2ccccc2)c1 [CBK262611] | 114.97
OCc1ccccc1-c1cncc(NCc2ccc3c(c2)OCO3)n1 [CBK065318] | 104.35
CC(=O)Nc1ccc(Sc2ccccn2)cc1 [CBK085853] | 94.1306
CC1CCN(C(=S)Nc2ccccc2)CC(C)(C)C1 (stereo not drawn) [CBK006185] | 73.6983
c1ccc(Cc2nn3c(COc4ccccc4)nnc3s2)cc1 [CBK267163] | 117.661
Cc1cc2ccccc2n2c(SCC(=O)NCc3ccco3)nnc12 [CBK265666] | 88.4184
CC(=O)N1CCc2c([nH]c3c(C)cccc23)C12CCN(CCOc1ccccc1)C2 (stereo not drawn) [CBK039646] | 89.0627
c1ccc(-n2cc(-c3cncn3CCCN3CCCCC3)cn2)cc1 [CBK281465] | 88.2978
COC(=O)CCN(Cc1nnc(C2CC2)o1)C(C)C [CBK304470] | 45.6578
COc1cccc(NC(=O)N[C@H]2CCN3C(=O)[C@@H](Cc4ccccc4)NC(=O)[C@H]23)c1 [CBK289230] | 67.9945
CS(=O)(=O)c1ccc(-c2cccc(COC3CCN(C(=O)Cc4c[nH]cn4)CC3)c2)cc1 [CBK149515] | 89.2659
CC(=O)Nc1ccc(CNC(=O)CN(C)Cc2nc(C3CC3)no2)cc1 [CBK306695] | 45.4801
N#Cc1ccc(-c2cnc(N)c(-c3ccc(NC(=O)CCN4CCCCC4)cc3)n2)cc1 [CBK116418] | 76.5352
NCCCCCCNc1ncnc2c1ncn2[C@H]1C[C@@H](O)[C@@H](CO)O1 [CBK201260] | 82.8528
COc1cccc(C(=O)N2CCN(C(=O)c3cccc(F)c3)CC2)c1OC [CBK263316] | 110.015
Cc1cc(Oc2ccc(N(C)C)cc2)cc(C2CCCNC2)n1 (stereo not drawn) [CBK283442] | 48.2112
Cc1cc(O)nc(C(C)N2CCOC(C(C)(C)C)C2)n1 (stereo not drawn) [CBK304097] | 85.6063
C(=N\Nc1ccc2nn(-c3ccccc3)nc2c1)/c1c[nH]c2ccccc12 [CBK261064] | 99.8654

Structure (SMILES) | % of control remaining
COC(=O)c1ccccc1NC(=O)Cn1cncc1-c1ccc([N+](=O)[O-])cc1 [CBK266741] | 90.4933
CCCCC1CCC(C(=O)O)CC1 (stereo not drawn) [CBK122493] | 90.5333
C[C@H]1[C@@H]2[C@@H](O)C([C@H](C)C(=O)N3CCCC3)CC[C@@]2(C)CC[C@@H]1NC(=O)C1CC1 (stereo partly drawn) [CBK289447] | 101.611
CCCn1c(SC(C)C(=O)c2cc(C)n(-c3ccc(Cl)cc3)c2C)n[nH]c1=O (stereo not drawn) [CBK295595] | 66.7687
Cc1cccc(N(C)S(=O)(=O)c2ccc(N3CCCNCC3)c3ccccc23)c1C [CBK004430C] | 39.3013
O=[N+]([O-])c1ccccc1S(=O)(=O)N1CCN(Cc2cccnc2)CC1 [CBK264168G] | 58.5211
O=C1C(=CNCc2ccco2)C(=O)c2ccccc21 [CBK262688] | 104.207
CC(=O)c1cccc(NC(=O)C2CCCN(S(=O)(=O)c3ccc(Cl)cc3)C2)c1 (stereo not drawn) [CBK266847] | 110.963
COCCN(Cc1cc2cccc(C)c2nc1O)S(C)(=O)=O [CBK269395] | 82.7438
O=C(Nc1cccc(-c2noc(CCc3ccccc3)n2)c1)c1cccs1 [CBK270225] | 104.362
CC(NC(=O)c1ccc(-n2cccc2)cc1)c1ccccn1 (stereo not drawn) [CBK296619] | 102.886
N#C/C(C(=O)Nc1ccccc1)=C(/O)c1nn(-c2ccccc2)c2c1CSc1ccccc1-2 [CBK017685] | 89.7864
O=C(Cn1ccc2ccc(F)cc21)Nc1cccc(-n2cnnc2)c1 [CBK282570] | 105.545
O=C1NC2(CCc3ccccc31)CCN(C(=O)CCn1cccn1)C2 (stereo not drawn) [CBK283352] | 104.246
O=c1[nH]c2ccccc2c(O)c1C1=Nc2ccccc2S(=O)(=O)N1 [CBK019929] | 104.741
O[C@@H]1CN(Cc2ccccc2F)CC[C@H]1N1CCCC1 [CBK282934] | 103.55
CCc1ccc(CNC(=O)Cn2nnc(-c3ccc(CNCC4CC4)cc3)n2)cc1 [CBK161032C] | 17.3583
C#CCNC(=O)C1CCCN(c2nc3ccccc3n2C)C1 (stereo not drawn) [CBK282336] | 84.6942
O=c1[nH]c2ccccc2n1CCCN1CCC[C@@H]1CN1CCCC1 [CBK137111T] | 107.291
CC(C)c1c(O)c2ccccc2[nH]c1=O [CBK159988] | 108.012
Cc1noc(C)c1C(=O)N1CCCCCC1c1nn(C)cc1Cl (stereo not drawn) [CBK285106] | 76.8516
O=C(c1cccs1)N(Cc1ccco1)Cc1cc2ccccc2nc1O [CBK269602] | 105.756
CC(C)N(Cc1cnn(C)c1)C(=O)c1cc(C2CC2)nc2ccccc12 [CBK305325] | 72.9358
COc1ccc(F)cc1-c1cccc(CC2(C(=O)NCCc3ccccc3)CCOCC2)c1 [CBK285562] | 102.258
CCc1nccn1CC(=O)N(C)C1CCCN(Cc2ccccc2F)C1 (stereo not drawn) [CBK306928] | 72.1908
